The values that follow come from the supplement of paper PMC12230231.

± gives the standard deviation of the averaged measurements. Restriction of a single-cycle SIVsab GFP reporter by TRIM5α v1-loop variants in CRFK cells. Human variants: read share among cells still uninfected after two challenges over input, higher = gained restriction. Rhesus variants: share among infected cells over input, higher = lost restriction. Reporter dose not given per row. No active / inactive call per row; the paper calls a change when both replicates lie above its controls (mean + 2 SD of stop or wild-type variants, or the top frameshift score). Residues outside the varied loop are taken from Swiss-Prot. The paper reads the human single-substitution scores as noise; they and the rhesus combinations repeat poorly (rank correlation 0.3 to 0.4), indel scores repeat only for the top variants, rhesus substitutions well (0.9).

This data set deals with SIVsab (simian immunodeficiency virus of sabaeus monkeys), single-cycle GFP reporter, in CRFK cells. As to the kind of experiment: enrichment among uninfected cells over input (fold); higher = stronger restriction. The settings on record: library: insertions and deletions. The protocol:
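Pools of CRFK cells expressing variants of the TRIM5α v1 loop were challenged with the single-cycle reporter, sorted by GFP and sequenced; mean of two replicates.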
For the sequence “MASGILVNVKEEVTCPICLELLTQPLSLDCGHSFCQACLTANHKKSMLDKGESSCPVCRISYQPENIRPNRHVANIVEKLREVKLSPEGQKVDHCARHGEKLLLFCQEDGKVICWLCERSQEHRGHHTFLTEEVAREYQVKLQAALEMLRQKQQEAEELEADIREEKASWKTQIQYDKTNVLADFEQLRDILDWEESNELQNLEKEEEDILKSLTNSETEMVQQTQSLRELISDLEHRLQGSVMELLQGVDGVIKRTENVTLKKPETFPKNQRRVFRAPDLKGMLEVFRELTDVRRYWVDVTVAPNNISCAVISEDKRQVSSPKPQIIYGARGTRYQTFVNFNYCTGILGSQSCTGILGSQSITSGKHYWEVDVSKKTAWILGVCAGFQPDAMCNIEKNENYQPKYGYWVIGLEEGVKCSAFQDSSFHTPSVPFIVPLSVIICPDRVGVFLDYEACTVSFFNITNHGFLIYKFSHCSFSQPVFPYLNPRKCGVPMTLCSPSS [human TRIM5α, 9-codon duplication at 345]”, the enrichment is 0.595 ± 0.43. As for “MASGILVNVKEEVTCPICLELLTQPLSLDCGHSFCQACLTANHKKSMLDKGESSCPVCRISYQPENIRPNRHVANIVEKLREVKLSPEGQKVDHCARHGEKLLLFCQEDGKVICWLCERSQEHRGHHTFLTEEVAREYQVKLQAALEMLRQKQQEAEELEADIREEKASWKTQIQYDKTNVLADFEQLRDILDWEESNELQNLEKEEEDILKSLTNSETEMVQQTQSLRELISDLEHRLQGSVMELLQGVDGVIKRTENVTLKKPETFPKNQRRVFRAPDLKGMLEVFRELTDVRRYWVDVTVAPNNISCAVISEDKRQVSSPKPQIIYGARGTRYQTFVNFNYCTGILGSQYCTGILGSQSITSGKHYWEVDVSKKTAWILGVCAGFQPDAMCNIEKNENYQPKYGYWVIGLEEGVKCSAFQDSSFHTPSVPFIVPLSVIICPDRVGVFLDYEACTVSFFNITNHGFLIYKFSHCSFSQPVFPYLNPRKCGVPMTLCSPSS [human TRIM5α, 9-codon duplication at 344]”, the figure is 0.582 ± 0.48. With “MASGILVNVKEEVTCPICLELLTQPLSLDCGHSFCQACLTANHKKSMLDKGESSCPVCRISYQPENIRPNRHVANIVEKLREVKLSPEGQKVDHCARHGEKLLLFCQEDGKVICWLCERSQEHRGHHTFLTEEVAREYQVKLQAALEMLRQKQQEAEELEADIREEKASWKTQIQYDKTNVLADFEQLRDILDWEESNELQNLEKEEEDILKSLTNSETEMVQQTQSLRELISDLEHRLQGSVMELLQGVDGVIKRTENVTLKKPETFPKNQRRVFRAPDLKGMLEVFRELTDVRRYWVDVTVAPNNISCAVISEDKRQVSSPKPQIIYGARGTRYQTFVNFNYCTGILGSYCTGILGSQSITSGKHYWEVDVSKKTAWILGVCAGFQPDAMCNIEKNENYQPKYGYWVIGLEEGVKCSAFQDSSFHTPSVPFIVPLSVIICPDRVGVFLDYEACTVSFFNITNHGFLIYKFSHCSFSQPVFPYLNPRKCGVPMTLCSPSS [human TRIM5α, 8-codon duplication at 344]” the figure was 0.345 ± 0.27. In the case of “MASGILVNVKEEVTCPICLELLTQPLSLDCGHSFCQACLTANHKKSMLDKGESSCPVCRISYQPENIRPNRHVANIVEKLREVKLSPEGQKVDHCARHGEKLLLFCQEDGKVICWLCERSQEHRGHHTFLTEEVAREYQVKLQAALEMLRQKQQEAEELEADIREEKASWKTQIQYDKTNVLADFEQLRDILDWEESNELQNLEKEEEDILKSLTNSETEMVQQTQSLRELISDLEHRLQGSVMELLQGVDGVIKRTENVTLKKPETFPKNQRRVFRAPDLKGMLEVFRELTDVRRYWVDVTVAPNNISCAVISEDKRQVSSPKPQIIYGARGTRYQTFVNFNYCTGILGYCTGILGSQSITSGKHYWEVDVSKKTAWILGVCAGFQPDAMCNIEKNENYQPKYGYWVIGLEEGVKCSAFQDSSFHTPSVPFIVPLSVIICPDRVGVFLDYEACTVSFFNITNHGFLIYKFSHCSFSQPVFPYLNPRKCGVPMTLCSPSS [human TRIM5α, 7-codon duplication at 344]”, the enrichment worked out at 0.134 ± 0.049. With “MASGILVNVKEEVTCPICLELLTQPLSLDCGHSFCQACLTANHKKSMLDKGESSCPVCRISYQPENIRPNRHVANIVEKLREVKLSPEGQKVDHCARHGEKLLLFCQEDGKVICWLCERSQEHRGHHTFLTEEVAREYQVKLQAALEMLRQKQQEAEELEADIREEKASWKTQIQYDKTNVLADFEQLRDILDWEESNELQNLEKEEEDILKSLTNSETEMVQQTQSLRELISDLEHRLQGSVMELLQGVDGVIKRTENVTLKKPETFPKNQRRVFRAPDLKGMLEVFRELTDVRRYWVDVTVAPNNISCAVISEDKRQVSSPKPQIIYGARGTRYQTFVNFNYCTGILNFNYCTGILGSQSITSGKHYWEVDVSKKTAWILGVCAGFQPDAMCNIEKNENYQPKYGYWVIGLEEGVKCSAFQDSSFHTPSVPFIVPLSVIICPDRVGVFLDYEACTVSFFNITNHGFLIYKFSHCSFSQPVFPYLNPRKCGVPMTLCSPSS [human TRIM5α, 9-codon duplication at 341]” the figure was 0.588 ± 0.73; with “MASGILVNVKEEVTCPICLELLTQPLSLDCGHSFCQACLTANHKKSMLDKGESSCPVCRISYQPENIRPNRHVANIVEKLREVKLSPEGQKVDHCARHGEKLLLFCQEDGKVICWLCERSQEHRGHHTFLTEEVAREYQVKLQAALEMLRQKQQEAEELEADIREEKASWKTQIQYDKTNVLADFEQLRDILDWEESNELQNLEKEEEDILKSLTNSETEMVQQTQSLRELISDLEHRLQGSVMELLQGVDGVIKRTENVTLKKPETFPKNQRRVFRAPDLKGMLEVFRELTDVRRYWVDVTVAPNNISCAVISEDKRQVSSPKPQIIYGARGTRYQTFVNFNYCTGILNYCTGILGSQSITSGKHYWEVDVSKKTAWILGVCAGFQPDAMCNIEKNENYQPKYGYWVIGLEEGVKCSAFQDSSFHTPSVPFIVPLSVIICPDRVGVFLDYEACTVSFFNITNHGFLIYKFSHCSFSQPVFPYLNPRKCGVPMTLCSPSS [human TRIM5α, 7-codon duplication at 343]”, 1.06 ± 0.51; with “MASGILVNVKEEVTCPICLELLTQPLSLDCGHSFCQACLTANHKKSMLDKGESSCPVCRISYQPENIRPNRHVANIVEKLREVKLSPEGQKVDHCARHGEKLLLFCQEDGKVICWLCERSQEHRGHHTFLTEEVAREYQVKLQAALEMLRQKQQEAEELEADIREEKASWKTQIQYDKTNVLADFEQLRDILDWEESNELQNLEKEEEDILKSLTNSETEMVQQTQSLRELISDLEHRLQGSVMELLQGVDGVIKRTENVTLKKPETFPKNQRRVFRAPDLKGMLEVFRELTDVRRYWVDVTVAPNNISCAVISEDKRQVSSPKPQIIYGARGTRYQTFVNFNYCTGILYCTGILGSQSITSGKHYWEVDVSKKTAWILGVCAGFQPDAMCNIEKNENYQPKYGYWVIGLEEGVKCSAFQDSSFHTPSVPFIVPLSVIICPDRVGVFLDYEACTVSFFNITNHGFLIYKFSHCSFSQPVFPYLNPRKCGVPMTLCSPSS [human TRIM5α, 6-codon duplication at 344]”, 16 ± 21. With “MASGILVNVKEEVTCPICLELLTQPLSLDCGHSFCQACLTANHKKSMLDKGESSCPVCRISYQPENIRPNRHVANIVEKLREVKLSPEGQKVDHCARHGEKLLLFCQEDGKVICWLCERSQEHRGHHTFLTEEVAREYQVKLQAALEMLRQKQQEAEELEADIREEKASWKTQIQYDKTNVLADFEQLRDILDWEESNELQNLEKEEEDILKSLTNSETEMVQQTQSLRELISDLEHRLQGSVMELLQGVDGVIKRTENVTLKKPETFPKNQRRVFRAPDLKGMLEVFRELTDVRRYWVDVTVAPNNISCAVISEDKRQVSSPKPQIIYGARGTRYQTFVNFNYCTGINYCTGILGSQSITSGKHYWEVDVSKKTAWILGVCAGFQPDAMCNIEKNENYQPKYGYWVIGLEEGVKCSAFQDSSFHTPSVPFIVPLSVIICPDRVGVFLDYEACTVSFFNITNHGFLIYKFSHCSFSQPVFPYLNPRKCGVPMTLCSPSS [human TRIM5α, 6-codon duplication at 343]” the figure was 2.12 ± 2.8; with “MASGILVNVKEEVTCPICLELLTQPLSLDCGHSFCQACLTANHKKSMLDKGESSCPVCRISYQPENIRPNRHVANIVEKLREVKLSPEGQKVDHCARHGEKLLLFCQEDGKVICWLCERSQEHRGHHTFLTEEVAREYQVKLQAALEMLRQKQQEAEELEADIREEKASWKTQIQYDKTNVLADFEQLRDILDWEESNELQNLEKEEEDILKSLTNSETEMVQQTQSLRELISDLEHRLQGSVMELLQGVDGVIKRTENVTLKKPETFPKNQRRVFRAPDLKGMLEVFRELTDVRRYWVDVTVAPNNISCAVISEDKRQVSSPKPQIIYGARGTRYQTFVNFNYCTGIVNFNYCTGILGSQSITSGKHYWEVDVSKKTAWILGVCAGFQPDAMCNIEKNENYQPKYGYWVIGLEEGVKCSAFQDSSFHTPSVPFIVPLSVIICPDRVGVFLDYEACTVSFFNITNHGFLIYKFSHCSFSQPVFPYLNPRKCGVPMTLCSPSS [human TRIM5α, 9-codon duplication at 340]”, 0.707 ± 0.3; with “MASGILVNVKEEVTCPICLELLTQPLSLDCGHSFCQACLTANHKKSMLDKGESSCPVCRISYQPENIRPNRHVANIVEKLREVKLSPEGQKVDHCARHGEKLLLFCQEDGKVICWLCERSQEHRGHHTFLTEEVAREYQVKLQAALEMLRQKQQEAEELEADIREEKASWKTQIQYDKTNVLADFEQLRDILDWEESNELQNLEKEEEDILKSLTNSETEMVQQTQSLRELISDLEHRLQGSVMELLQGVDGVIKRTENVTLKKPETFPKNQRRVFRAPDLKGMLEVFRELTDVRRYWVDVTVAPNNISCAVISEDKRQVSSPKPQIIYGARGTRYQTFVNFNYCTGIYCTGILGSQSITSGKHYWEVDVSKKTAWILGVCAGFQPDAMCNIEKNENYQPKYGYWVIGLEEGVKCSAFQDSSFHTPSVPFIVPLSVIICPDRVGVFLDYEACTVSFFNITNHGFLIYKFSHCSFSQPVFPYLNPRKCGVPMTLCSPSS [human TRIM5α, 5-codon duplication at 344]”, 0.344 ± 0.48. As for “MASGILVNVKEEVTCPICLELLTQPLSLDCGHSFCQACLTANHKKSMLDKGESSCPVCRISYQPENIRPNRHVANIVEKLREVKLSPEGQKVDHCARHGEKLLLFCQEDGKVICWLCERSQEHRGHHTFLTEEVAREYQVKLQAALEMLRQKQQEAEELEADIREEKASWKTQIQYDKTNVLADFEQLRDILDWEESNELQNLEKEEEDILKSLTNSETEMVQQTQSLRELISDLEHRLQGSVMELLQGVDGVIKRTENVTLKKPETFPKNQRRVFRAPDLKGMLEVFRELTDVRRYWVDVTVAPNNISCAVISEDKRQVSSPKPQIIYGARGTRYQTFVNFNYCTGNFNYCTGILGSQSITSGKHYWEVDVSKKTAWILGVCAGFQPDAMCNIEKNENYQPKYGYWVIGLEEGVKCSAFQDSSFHTPSVPFIVPLSVIICPDRVGVFLDYEACTVSFFNITNHGFLIYKFSHCSFSQPVFPYLNPRKCGVPMTLCSPSS [human TRIM5α, 7-codon duplication at 341]”, the figure is 0.301 ± 0.15.
